Reference: PubChem BioAssay AID504466 (National Center for Advancing Translational Sciences (NCATS), 2011)
Hit rate of the full screen: of about 330,000 compounds, about 4,200 (1.3%) were called active. Inconclusive means that the source gave no clear call. Such entries were picked first, then a sample of the others. Calls come from the whole dose curve; as a rule, active = well fitted activation curve with a large enough effect; inconclusive = small, poorly fitted or top-dose-only effect; inactive = no such curve, though single readings can be large or run the other way. Potencies of inconclusive entries are doubtful fits and often do not repeat.

Assay: qHTS screen for small molecules that induce genotoxicity in human embryonic kidney (HEK293T) cells expressing luciferase-tagged ELG1; note: nearly all actives have a fitted effect of over 60% in size
Details: HEK293T ELG1-luciferase reporter, luminescence, 16 h; series mostly up to 46 µM
In short: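 Reporter readout depends on ELG1 protein level, which increases with genetic stress. After 16 hr compound exposure at 37 °C, luciferase activity was quantified using ONE-Glo.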
Potency is the fitted concentration of half-maximal effect; tags give direction and shape of the fitted curve.

**Q.** With `Cc1ccc(OC(=O)c2c(C)nn(-c3ccccc3)c2C)cc1` as the compound, how does the Potency read?
**A.** inconclusive: 14.6 µM [activator, partial curve]

**Q.** For `O=C(Nc1ccc2c(c1)OCCO2)C1CC1c1ccccc1` (stereo unspecified), which Potency is on record?
**A.** inconclusive: 13 µM [activator, partial curve, poor fit]

**Q.** With `COc1ccc(C(=O)N/N=C(\Cc2ncc[nH]2)c2ccccc2)cc1` as the compound, how does the Potency read?
**A.** inactive

**Q.** With `CCN(CC)C(=O)c1[nH]cnc1C(=O)NCC(=O)OCc1ccccc1` as the compound, how does the Potency read?
**A.** inactive

**Q.** Which Potency does the source give for `COC(=O)c1[nH]c2ccc(C)cc2c1NC(=O)Nc1ccc(OC)cc1` here?
**A.** inconclusive: 18.4 µM [activator, single point]

**Q.** With `CCOC(=O)C1=C(c2ccccc2)Nc2ncnn2C1c1cccc(O)c1` (stereo unspecified) as the compound, how does the Potency read?
**A.** inactive

**Q.** With `NC(=O)c1ccc(NCC2CCCO2)c([N+](=O)[O-])c1` (stereo unspecified) as the compound, how does the Potency read?
**A.** inactive

**Q.** With `O=C(Nc1nnc(-c2ccccc2)s1)c1cc(S(=O)(=O)N2CCOCC2)c(Cl)cc1Cl` as the compound, how does the Potency read?
**A.** inconclusive: 25.9 µM [activator, partial curve, poor fit]

**Q.** For `c1ccc(-c2ccc3c(c2)c2c4n3CCN=C4CCC2)cc1`, which Potency is on record?
**A.** inactive

**Q.** For `NS(=O)(=O)c1ccc(CCNC(=O)c2ccc(NS(=O)(=O)c3ccc4[nH]c(=O)[nH]c4c3)cc2)cc1`, which Potency is on record?
**A.** inactive

**Q.** For `Cc1[nH]n(-c2ccccc2)c(=S)c1C=NCCCN=Cc1c(C)[nH]n(-c2ccccc2)c1=S`, which Potency is on record?
**A.** inconclusive: 16.4 µM [activator, single point]

**Q.** For `CCc1ccc(/C=N/NC(=O)c2cc(C)on2)s1`, which Potency is on record?
**A.** inconclusive: 23.1 µM [activator, partial curve, poor fit]

**Q.** With `COc1ccc(C2CC(=O)Oc3cc(OC)c(OC)c(OC)c32)cc1` (stereo unspecified) as the compound, how does the Potency read?
**A.** inconclusive: 13 µM [activator, partial curve, poor fit]

**Q.** For `CC(C)(C)OC(=O)N/N=C/c1cccc([N+](=O)[O-])c1`, which Potency is on record?
**A.** inconclusive: 4.61 µM [activator, partial curve]

**Q.** For `CCOc1ccc(C(=O)Nc2nnc(SCC(=O)NCC3CCCO3)s2)cc1` (stereo unspecified), which Potency is on record?
**A.** inconclusive: 1.16 µM [activator, partial curve]

**Q.** For `CC(C)CCNC(=O)C1CC(c2cccc([N+](=O)[O-])c2)=NO1` (stereo unspecified), which Potency is on record?
**A.** inactive

**Q.** With `O=C(Nc1ccc(CCC(=O)N2CCCC2)cc1)c1ncn[nH]1` as the compound, how does the Potency read?
**A.** inactive

**Q.** With `Cc1ccc2c(c1)sc(=NC(=O)C1CC1)n2C` as the compound, how does the Potency read?
**A.** inconclusive: 13 µM [activator, partial curve]

**Q.** Which Potency does the source give for `COc1ccc(C(=O)Nc2cccc(OC)c2)cc1` here?
**A.** active: 2.31 µM

**Q.** With `O=C1CNC(=O)N1c1ccc(Cl)cc1` as the compound, how does the Potency read?
**A.** inactive

**Q.** For `O=C(CSc1nc2ccc([N+](=O)[O-])cc2[nH]1)NCCc1ccccc1`, which Potency is on record?
**A.** inactive

**Q.** With `CCOC(=O)c1cc(-c2ccco2)nc2c1c(C)nn2-c1ccccc1` as the compound, how does the Potency read?
**A.** inactive

**Q.** With `COc1ccc2oc(=O)c(-c3cn4ccc(C)cc4n3)cc2c1` as the compound, how does the Potency read?
**A.** active: 20.6 µM

**Q.** For `O=C(N/N=C/c1cc([N+](=O)[O-])ccc1O)c1ccc2c(c1)OCCO2`, which Potency is on record?
**A.** inconclusive: 23.1 µM [activator, single point]

**Q.** Which Potency does the source give for `c1ccc(OCc2nnc(-c3ccccc3)o2)cc1` here?
**A.** inconclusive: 20.6 µM [activator, partial curve]

**Q.** Which Potency does the source give for `O=C(Nc1cccnc1)c1cc(-c2ccc(Cl)cc2Cl)on1` here?
**A.** inconclusive: 0.517 µM [activator, full curve, poor fit]

**Q.** Which Potency does the source give for `O=C(COc1ccccc1[N+](=O)[O-])Nc1ccc(Br)cc1` here?
**A.** inconclusive: 23.1 µM [activator, single point]

**Q.** Which Potency does the source give for `CC1CCc2nc(NC(=O)C3COc4ccccc4O3)sc2C1` (stereo unspecified) here?
**A.** inconclusive: 0.259 µM [activator, full curve, poor fit]

**Q.** With `O=C(Nc1ccc(Oc2cccc3ccccc23)cc1)c1ccco1` as the compound, how does the Potency read?
**A.** inconclusive: 14.6 µM [activator, partial curve, poor fit]

**Q.** With `CCCCSc1ncc(C(=O)OCC)c(N)n1` as the compound, how does the Potency read?
**A.** inconclusive: 5.8 µM [activator, partial curve]

**Q.** Which Potency does the source give for `Cc1nn(-c2ccccc2)nc1CNC(=O)C1CC1` here?
**A.** inactive

**Q.** With `CC(=O)n1c2c(c3ccccc31)OC(N)=C(C#N)C2c1ccc(C(C)C)cc1` (stereo unspecified) as the compound, how does the Potency read?
**A.** inconclusive: 20.6 µM [activator, single point]

**Q.** Which Potency does the source give for `O=C(Nc1nncs1)c1ccc2c(c1)OCO2` here?
**A.** inconclusive: 13 µM [activator, partial curve, poor fit]

**Q.** With `CC1(C)Cc2c(sc(NC(=O)c3ccco3)c2C#N)CO1` as the compound, how does the Potency read?
**A.** inconclusive: 3.66 µM [activator, full curve]

**Q.** For `Cc1nnc(NC(=O)c2ccc(Br)cc2)s1`, which Potency is on record?
**A.** inconclusive: 14.6 µM [activator, partial curve, poor fit]

**Q.** For `O=C(N[C@@H](Cc1c[nH]c2ccccc12)C(=O)NC1CC1)c1ccccc1Cl`, which Potency is on record?
**A.** inconclusive: 14.6 µM [activator, partial curve, poor fit]

**Q.** With `CCOC(=O)C(=CN=C(N)Nc1nc2ccccc2o1)C(=O)OCC` as the compound, how does the Potency read?
**A.** inconclusive: 10.3 µM [activator, partial curve, poor fit]

**Q.** With `O=C(Cc1nc(=O)c2ccccc2s1)Nc1ccccc1` as the compound, how does the Potency read?
**A.** inconclusive: 1.64 µM [activator, full curve]

**Q.** Which Potency does the source give for `Cc1ccc(S(=O)(=O)Nc2cc(-c3nn(C)c(=O)c4ccccc34)ccc2N2CCOCC2)cc1` here?
**A.** inconclusive: 16.4 µM [activator, single point]

**Q.** With `COc1ccc2c(c1)O[C@@H](c1ccc3c(c1)OCO3)[C@H](OC(=O)Nc1cc(OC)c(OC)c(OC)c1)C2=O` as the compound, how does the Potency read?
**A.** inconclusive: 20.6 µM [activator, partial curve, poor fit]

**Q.** Which Potency does the source give for `COC(=O)c1cnc(Oc2ccc(NC(=O)NC(=O)c3c(OC)cccc3OC)cc2)cc1C(F)(F)F` here?
**A.** inactive

**Q.** For `O=C(c1cc2cc(Br)ccc2o1)N1CCN(c2ccccc2)CC1`, which Potency is on record?
**A.** inconclusive: 9.2 µM [activator, partial curve, poor fit]

**Q.** For `O=C(Nc1cccc2cccnc12)c1ccc2c(c1)OCCO2`, which Potency is on record?
**A.** inconclusive: 9.2 µM [activator, partial curve]

**Q.** For `COc1cccc(C(=O)OCc2ccccc2C#N)c1O`, which Potency is on record?
**A.** inconclusive: 23.1 µM [activator, partial curve, poor fit]

**Q.** Which Potency does the source give for `O=C(Nc1ccccc1)C1=C[C@H](C2CC2)C[C@H](OCCCCO)O1` here?
**A.** inconclusive: 18.3 µM [activator, partial curve, poor fit]

**Q.** For `COCCn1c(SCC(=O)NC(=O)NCc2ccccc2)nc2ccccc21`, which Potency is on record?
**A.** inconclusive: 20.6 µM [activator, partial curve, poor fit]

**Q.** For `Cc1csc(NC(=O)c2nc3nccc(C)n3n2)n1`, which Potency is on record?
**A.** inconclusive: 16.4 µM [activator, partial curve]

**Q.** For `CCOC(=O)c1ccc(NC(=S)NNC(=O)c2cc(-c3cccnc3)nc3ccccc23)cc1`, which Potency is on record?
**A.** inactive

**Q.** With `CC1C(O)=C(c2nc3ccccc3[nH]2)C(=N)N1c1ccccc1` (stereo unspecified) as the compound, how does the Potency read?
**A.** inconclusive: 14.6 µM [activator, partial curve, poor fit]

**Q.** For `COC(=O)Cn1c(O)c(N=NC(=O)CNC(=O)c2ccncc2)c2ccccc21`, which Potency is on record?
**A.** inactive

**Q.** For `COCc1nc2oc3ccc(F)cc3c(=O)c2cc1C(=O)OC`, which Potency is on record?
**A.** inconclusive: 14.6 µM [activator, partial curve, poor fit]

**Q.** For `CN(C)c1ccc(C(=O)NNC(=O)Nc2ccccc2)cc1`, which Potency is on record?
**A.** inactive

**Q.** Which Potency does the source give for `O=S(=O)(Cc1ccccc1Cl)NCCc1ccccc1` here?
**A.** inactive

**Q.** For `CN1CCN(Cc2nc(N)nc(Nc3ccc4c(c3)OCCO4)n2)CC1`, which Potency is on record?
**A.** inconclusive: 25.9 µM [activator, single point]

**Q.** With `CC(=O)Nc1ccc(/C=C2/Sc3ccccc3C2=O)cc1` as the compound, how does the Potency read?
**A.** inconclusive: 23.1 µM [activator, single point]

**Q.** With `CC(Sc1nc2ccccc2s1)C(=O)N1CCOCC1` (stereo unspecified) as the compound, how does the Potency read?
**A.** inconclusive: 20.6 µM [activator, partial curve, poor fit]

**Q.** With `COc1ccc(N=C2NC(=O)S/C2=C\c2ccc(N(C)C)cc2)cc1` as the compound, how does the Potency read?
**A.** inconclusive: 10.3 µM [activator, partial curve]

**Q.** For `Cc1c(C)c2ccc(OCC(=O)N3CCOCC3)c(C)c2oc1=O`, which Potency is on record?
**A.** inconclusive: 32.6 µM [activator, single point]

**Q.** For `O=C(Nc1ccc(-c2nc3cccnc3s2)cc1)C1CCCO1` (stereo unspecified), which Potency is on record?
**A.** inconclusive: 0.206 µM [activator, full curve]

**Q.** Which Potency does the source give for `O=C(CN1CCCC1)Nc1ccc(F)c(Cl)c1` here?
**A.** inactive

**Q.** With `O=C(/C=C/c1cnc2ccccc2n1)NC1CCCCCC1` as the compound, how does the Potency read?
**A.** inconclusive: 10.3 µM [activator, partial curve]

**Q.** With `Cc1cccc(-c2nc3cc([N+](=O)[O-])ccc3o2)c1` as the compound, how does the Potency read?
**A.** active: 16.4 µM

**Q.** With `COC(=O)N/N=C\c1cc2c(cc1Br)OCO2` as the compound, how does the Potency read?
**A.** inactive

**Q.** For `CC(=O)NC1(NC(C)=O)CCN(C)CC1`, which Potency is on record?
**A.** inactive

**Q.** For `CN(C(=O)c1ccncc1)c1nnc(-c2ccccn2)s1`, which Potency is on record?
**A.** inconclusive: 14.1 µM [activator, single point]

**Q.** Which Potency does the source give for `Cc1ccc(C(=O)NC(=S)N(C)C2CCCCC2)cc1` here?
**A.** inconclusive: 8.2 µM [activator, partial curve, poor fit]

**Q.** For `CCOc1ccc2nc(NCCCNS(=O)(=O)c3ccccc3)c(C#N)cc2c1`, which Potency is on record?
**A.** inactive

**Q.** Which Potency does the source give for `CC1CCN(C(=O)COC(=O)c2n[nH]c3ccccc23)CC1` here?
**A.** inconclusive: 9.2 µM [activator, partial curve]

**Q.** Which Potency does the source give for `Cc1ccc(N(Cc2ccccc2)C(=O)c2cc(S(=O)(=O)N3CCOCC3)ccc2C)cc1` here?
**A.** inconclusive: 18.3 µM [activator, single point]

**Q.** Which Potency does the source give for `Cc1csc(NC(=O)c2cnccn2)n1` here?
**A.** inconclusive: 10.3 µM [activator, partial curve]

**Q.** With `Cc1ccc(C(=O)Nc2ncc(C)s2)s1` as the compound, how does the Potency read?
**A.** inconclusive: 1.03 µM [activator, partial curve]
